Drawing on publication PMC5892938, this text covers binding signal (log2 fold change) for 47 sequences.

The list shows a part of the results. At the low end of the ranking the order means little.

The target of this assay is GST-SBP-SLBP (stem-loop binding protein) (UniProt Q14493). Put plainly: targeted RNA Bind-n-Seq.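 Also: DESeq read counts versus GST-SBP nonspecific binding control pulldown.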 The note with it: RBNS binding buffer: 25 mM Tris pH 7.5, 150 mM KCl, 3 mM MgCl2, 0.1% Tween, 0.5 mg/mL BSA, 1 mM DTT; 27 nM protein, 750 pM RNA pool; temperature not stated; high values mean tight binding.
Take “GGUCACGUCUCAAUCAACUCUUUCCCAGGAGUUUACUCCUGUAUACUCAACAGCUCGCAGUCAAG”: the binding signal (log2 fold change) worked out at 0.0263. For “GGUCACGUCUCAAUCAACUCAUUUUCAGGAGUUUUCUCCUGCUUUGUCAACAGCUCGCAGUCAAG”, the binding signal (log2 fold change) was found to be 0.0906. Consider “GGUCACGUCUCAAUCAACUCAUUCUCCAGGGAAAUCCCUGGUUUUCUCAACAGCUCGCAGUCAAG”, for which the binding signal (log2 fold change) is -0.283.

In the case of “GGUCACGUCUCAAUCAACUCAUCCUCCAGGGAAACCCCUGGUAUAUUCAACAGCUCGCAGUCAAG”, the binding signal (log2 fold change) is -0.0551. Consider “GGUCACGUCUCAAUCAACUCCAAAGAGGGGGGGAAAACCCCUUUGCCCUCAUCCUCAACAGCUCGCAGUCAAG”, for which the binding signal (log2 fold change) was -0.398. For “GGUCACGUCUCAAUCAACUCAUUUCCCAGGGAAAUCCCUGGUUUUUUCAACAGCUCGCAGUCAAG”, the binding signal (log2 fold change) is -0.0723. Regarding “GGUCACGUCUCAAUCAACUCCAUCGAGGGGGGGAAAACCCCUUUACCCUCAAUAUCAACAGCUCGCAGUCAAG”, the binding signal (log2 fold change) is 0.429. As to “GGUCACGUCUCAAUCAACUCUAUAGAGGGGGGGAAAACCCCUUUACCCUCAAAAUCAACAGCUCGCAGUCAAG”, the binding signal (log2 fold change) came to 0.178. The figure for “GGUCACGUCUCAAUCAACUCAAUUCCCAGGGAAACCCCUGGCAUUUUCAACAGCUCGCAGUCAAG” is 0.0467; for “GGUCACGUCUCAAUCAACUCUAUCUCCAGGGAAAGCCCUGGCUAUCUCAACAGCUCGCAGUCAAG” it is -0.0753; for “GGUCACGUCUCAAUCAACUCUAUCCCCAGGGAAACCCCUGGUUAUUUCAACAGCUCGCAGUCAAG” it is 0.0533. On to “GGUCACGUCUCAAUCAACUCAUUCCCAGGAGUUUACUCCUGUUAAUUCAACAGCUCGCAGUCAAG”, for which the binding signal (log2 fold change) was -0.244.

Regarding “GGUCACGUCUCAAUCAACUCACAAGAGGGGGGGAAAACCCCUUUGCCCUCCGUAUCAACAGCUCGCAGUCAAG”, the binding signal (log2 fold change) was determined as 0.416. For the sequence “GGUCACGUCUCAAUCAACUCAUCAGAGGGGGGGAAAACCCCUUUACCCUCAAUUUCAACAGCUCGCAGUCAAG”, the binding signal (log2 fold change) was -0.0652. In the case of “GGUCACGUCUCAAUCAACUCUUCCUCCAGGGAAAACCCUGGUAAAUUCAACAGCUCGCAGUCAAG”, the binding signal (log2 fold change) turned out to be 0.015.

With “GGUCACGUCUCAAUCAACUCUUUUCCCAGGGAAAGCCCUGGCUAACUCAACAGCUCGCAGUCAAG”, the binding signal (log2 fold change) is -0.216.

For the sequence “GGUCACGUCUCAAUCAACUCUAUCUCAGGAGUUUCCUCCUGUUAUUUCAACAGCUCGCAGUCAAG”, the binding signal (log2 fold change) was -0.145.

In the case of “GGUCACGUCUCAAUCAACUCAACGCCAGGAGUUUCCUCCUGUUUUUUCAACAGCUCGCAGUCAAG”, the binding signal (log2 fold change) was 0.0306. Regarding “GGUCACGUCUCAAUCAACUCAACUCCCAGGGAAAACCCUGGUUAAUUCAACAGCUCGCAGUCAAG”, the binding signal (log2 fold change) stood at 0.246. With “GGUCACGUCUCAAUCAACUCAUCUCCAGGAGUUUACUCCUGUAUACUCAACAGCUCGCAGUCAAG”, the binding signal (log2 fold change) stood at 0.156. “GGUCACGUCUCAAUCAACUCUAUUUCCAGGGAAAACCCUGGCUAUUUCAACAGCUCGCAGUCAAG”: the binding signal (log2 fold change) was 0.059. In the case of “GGUCACGUCUCAAUCAACUCAUCCCCCAGGGAAAACCCUGGUUUACUCAACAGCUCGCAGUCAAG”, the binding signal (log2 fold change) was -0.178.

Consider “GGUCACGUCUCAAUCAACUCAACUUCAGGAGUUUGCUCCUGCUAUCUCAACAGCUCGCAGUCAAG”, for which the binding signal (log2 fold change) is -0.0238.

As to “GGUCACGUCUCAAUCAACUCAUUUUCAGGAGUUUACUCCUGUAUAUUCAACAGCUCGCAGUCAAG”, the binding signal (log2 fold change) was -0.084. The figure for “GGUCACGUCUCAAUCAACUCUUUUCCAGGAGUUUACUCCUGCUUUUUCAACAGCUCGCAGUCAAG” is 0.0197. The figure for “GGUCACGUCUCAAUCAACUCUUUCCCCAGGGAAAUCCCUGGCAAUUUCAACAGCUCGCAGUCAAG” is -0.0795; for “GGUCACGUCUCAAUCAACUCAGUUUCAGGAGUUUUCUCCUGCUUUUUCAACAGCUCGCAGUCAAG” it is -0.0434. Consider “GGUCACGUCUCAAUCAACUCAGUCCCCAGGGAAAGCCCUGGCAUUUUCAACAGCUCGCAGUCAAG”, for which the binding signal (log2 fold change) was -0.459. As to “GGUCACGUCUCAAUCAACUCCACAGAGGGGGGGAAAACCCCUUUGCCCUCCAAUUCAACAGCUCGCAGUCAAG”, the binding signal (log2 fold change) was -0.0165. The figure for “GGUCACGUCUCAAUCAACUCUUUCUCAGGAGUUUCCUCCUGCAAACUCAACAGCUCGCAGUCAAG” is 0.000456; for “GGUCACGUCUCAAUCAACUCCUUAGAGGGGGGGAAAACCCCUUUGCCCUCACAAUCAACAGCUCGCAGUCAAG” it is 0.226; for “GGUCACGUCUCAAUCAACUCAAUUUCAGGAGUUUACUCCUGUUAAUUCAACAGCUCGCAGUCAAG” it is 0.103. Take “GGUCACGUCUCAAUCAACUCAUUUGCAGGAGUUUUCUCCUGGUAUCUCAACAGCUCGCAGUCAAG”: the binding signal (log2 fold change) is -0.0839. Take “GGUCACGUCUCAAUCAACUCUAACGAGGGGGGGAAAACCCCUUUACCCUCAUAUUCAACAGCUCGCAGUCAAG”: the binding signal (log2 fold change) stood at 0.263.

“GGUCACGUCUCAAUCAACUCAAUCCCAGGAGUUUUCUCCUGCUUUCUCAACAGCUCGCAGUCAAG”: the binding signal (log2 fold change) came out at 0.247.

On to “GGUCACGUCUCAAUCAACUCUUUCUCCAGGGAAAGCCCUGGUUUACUCAACAGCUCGCAGUCAAG”, for which the binding signal (log2 fold change) stood at 0.057. Take “GGUCACGUCUCAAUCAACUCAUUCCCAGGAGUUUCCUCCUGCUUACUCAACAGCUCGCAGUCAAG”: the binding signal (log2 fold change) is 0.0267. “GGUCACGUCUCAAUCAACUCUUUCUCCAGGGAAAGCCCUGGCAAAUUCAACAGCUCGCAGUCAAG”: the binding signal (log2 fold change) worked out at 0.146. “GGUCACGUCUCAAUCAACUCAUCCUCAGGAGUUUACUCCUGUUAUCUCAACAGCUCGCAGUCAAG”: the binding signal (log2 fold change) was -0.171.

Take “GGUCACGUCUCAAUCAACUCAUCUCCCAGGGAAACCCCUGGUUAACUCAACAGCUCGCAGUCAAG”: the binding signal (log2 fold change) came to 0.13. Consider “GGUCACGUCUCAAUCAACUCAUCGUCAGGAGUUUACUCCUGUUAUCUCAACAGCUCGCAGUCAAG”, for which the binding signal (log2 fold change) is -0.0175. In the case of “GGUCACGUCUCAAUCAACUCGUCUUCAGGAGUUUUCUCCUGUUAAUUCAACAGCUCGCAGUCAAG”, the binding signal (log2 fold change) is -0.251.

Consider “GGUCACGUCUCAAUCAACUCUAUUCCCAGGGAAAGCCCUGGCAAAUUCAACAGCUCGCAGUCAAG”, for which the binding signal (log2 fold change) is -0.1. Turning to “GGUCACGUCUCAAUCAACUCAACUCCCAGGGAAAUCCCUGGCUAUUUCAACAGCUCGCAGUCAAG”, the binding signal (log2 fold change) worked out at 0.0117. As for “GGUCACGUCUCAAUCAACUCAAACGAGGGGGGGAAAACCCCUUUACCCUCAUCUUCAACAGCUCGCAGUCAAG”, the binding signal (log2 fold change) is 0.145. In the case of “GGUCACGUCUCAAUCAACUCCUCGGAGGGGGGGAAAACCCCUUUACCCUCACAUUCAACAGCUCGCAGUCAAG” it was 0.424; in that of “GGUCACGUCUCAAUCAACUCCUACGAGGGGGGGAAAACCCCUUUGCCCUCAAUUUCAACAGCUCGCAGUCAAG”, -0.294.
